Assay results as given in article PMC9574860, “Chemical Toolkit for PARK7: Potent, Selective, and High-Throughput” (Journal of Medicinal Chemistry, 2022).
The campaign covered roughly 7,900 compounds. About 400 (5.1%) showed an effect of 50% or more. The list shows a part of the results.

Biological target: Parkinson's disease protein 7 (PARK7/DJ1) (human, UniProt Q99497)
Experiment: primary screen, percent inhibition; read as competition with a fluorescent probe by fluorescence polarization; higher = more effect of the substance
Details: 100 µM
Procedure, shortened: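 Covalent fragments at 100 μM final were incubated 2 h with 0.2 μM PARK7, then 20 nM probe JYQ-107 added for a further 2 h. Fluorescence polarization read at 480/520 nm; relative FP loss versus reference controls gave remaining enzyme activity.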

Chain of Parkinson's disease protein 7 (PARK7/DJ1) (Q99497 whole entry, looked up): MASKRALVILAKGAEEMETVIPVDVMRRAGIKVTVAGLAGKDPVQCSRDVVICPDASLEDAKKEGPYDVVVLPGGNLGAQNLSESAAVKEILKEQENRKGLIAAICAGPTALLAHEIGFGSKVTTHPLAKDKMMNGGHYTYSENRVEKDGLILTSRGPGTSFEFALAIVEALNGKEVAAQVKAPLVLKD

Q: CC1(C)OB(c2c(Cl)cccc2C#N)OC1(C)C was tested. Which Inhibition % did it give?
A: Its Inhibition % is 0.642%.

Q: With N#CC(=Cc1ccc(-c2ccc(Cl)cc2Cl)o1)C(N)=O as the molecule, how does the Inhibition % read?
A: Its Inhibition % is 3.17%.

Q: Which Inhibition % does the source give for C=CC(=O)Nc1cnn2c1CCCC2 here?
A: The Inhibition % was 10.1%.

Q: CC(C)NC(=O)C(C#N)=Cc1cccc(F)c1F was tested. Which Inhibition % did it give?
A: The Inhibition % was 13%.

Q: For Cc1ccc(C)c(C2CO2)c1 (centres unmarked), which Inhibition % is on record?
A: The Inhibition % was 8.28%.

Q: Which Inhibition % does the source give for Cc1ncc(C=CC(=O)N2CCNC(C)C2)s1 (centres unmarked) here?
A: The Inhibition % was 6.77%.

Q: C=CC(=O)NC1(C)CCOC1C (centres unmarked) was tested. Which Inhibition % did it give?
A: The Inhibition % was 6.75%.

Q: C=CC(=O)N1CCCc2cccc(OC)c21 was tested. Which Inhibition % did it give?
A: Its Inhibition % is 3.82%.

Q: With CC1CCCC(C)N1C(=O)C=Cc1ccccn1 (centres unmarked) as the molecule, how does the Inhibition % read?
A: The Inhibition % was 16.8%.

Q: Which Inhibition % does the source give for CC1(C)OB(c2ccc(S(N)(=O)=O)c(N)c2)OC1(C)C here?
A: Its Inhibition % is 4.77%.

Q: With C=CC(=O)N(Cc1nc(C)cs1)CC1CCCO1 (centres unmarked) as the molecule, how does the Inhibition % read?
A: Its Inhibition % is 4.68%.

Q: With C=CC(=O)NC1CCCN(c2ccnn2C)C1 (centres unmarked) as the molecule, how does the Inhibition % read?
A: Its Inhibition % is 26.2%.

Q: CS(=O)(=O)OCC1(C#N)CCCCC1 was tested. Which Inhibition % did it give?
A: The Inhibition % was 8.05%.

Q: With C=CC(=O)N1CCC(C(=O)O)(c2ccccc2)CC1 as the molecule, how does the Inhibition % read?
A: Its Inhibition % is 2.37%.

Q: How did the Inhibition % turn out when COC(=O)c1ccc(CS(=O)(=O)F)cc1 was run?
A: The Inhibition % was 7.95%.

Q: CC1(C)CCC2OC2C1 (centres unmarked) was tested. Which Inhibition % did it give?
A: Its Inhibition % is 5.09%.

Q: For C=CC(=O)Nc1cc(OC)c2ncccc2c1, which Inhibition % is on record?
A: The Inhibition % was 29.3%.

Q: With CNC(=O)Cn1nc(-c2ccc(F)cc2)oc1=O as the molecule, how does the Inhibition % read?
A: The Inhibition % was 16.9%.

Q: How did the Inhibition % turn out when CN(C)S(=O)(=O)C=Cc1ccc(Cl)cc1 was run?
A: Its Inhibition % is 11.6%.

Q: O=C(CCl)N(Cc1ccc(F)cc1)C1CCCCC1 was tested. Which Inhibition % did it give?
A: The Inhibition % was 8.38%.

Q: Which Inhibition % does the source give for ClCCC1CCOCC1 here?
A: The Inhibition % was 4.65%.

Q: Which Inhibition % does the source give for C=CC(=O)NC1CCCN(c2ccnn2C)C1=O (centres unmarked) here?
A: The Inhibition % was 17.8%.

Q: C=CC(=O)NC(C)C(C)n1cncn1 (centres unmarked) was tested. Which Inhibition % did it give?
A: Its Inhibition % is 14.2%.

Q: How did the Inhibition % turn out when CC1(C)OB(c2ccnc3c(O)cccc23)OC1(C)C was run?
A: The Inhibition % was 22.4%.

Q: How did the Inhibition % turn out when COc1cc(C)c(C)cc1S(=O)(=O)n1ccc(C)n1 was run?
A: The Inhibition % was 2.99%.

Q: With C=CC(=O)N1CCCC(C(C)NC(=O)NC(C)(C)C)C1 (centres unmarked) as the molecule, how does the Inhibition % read?
A: Its Inhibition % is 9.75%.

Q: For CC(C)C1CN(c2ccc(C#N)nc2)CCS1 (centres unmarked), which Inhibition % is on record?
A: The Inhibition % was 6.47%.

Q: With O=C1CN=C(S)N1Cc1ccco1 as the molecule, how does the Inhibition % read?
A: The Inhibition % was 34.1%.

Q: N#Cc1c2c(n(-c3ccccc3)c1NC(=O)CCl)CCCC2 was tested. Which Inhibition % did it give?
A: The Inhibition % was 5.73%.

Q: Cc1cc(C)c(NC(=O)Cn2cnc(C#N)n2)c(Cl)c1 was tested. Which Inhibition % did it give?
A: The Inhibition % was 29.5%.

Q: Which Inhibition % does the source give for N#CC1(NC(=O)CCl)CCCC1 here?
A: The Inhibition % was 26.3%.

Q: C=CC(=O)N[C@@H]1CCO[C@H]1CC (racemic) was tested. Which Inhibition % did it give?
A: The Inhibition % was 3.31%.

Q: Which Inhibition % does the source give for C=CC(=O)NC1CCCN(c2ccccc2)C1=O (centres unmarked) here?
A: Its Inhibition % is 7.42%.

Q: With O=C1CC(C(F)(F)F)N(C(=O)CCl)c2ccccc2N1 (centres unmarked) as the molecule, how does the Inhibition % read?
A: Its Inhibition % is 53%.

Q: With N#Cc1ncn(CCS(=O)c2ccccc2)n1 (centres unmarked) as the molecule, how does the Inhibition % read?
A: Its Inhibition % is 7.78%.

Q: For C=CC(=O)NC(C)C1(C)CC1 (centres unmarked), which Inhibition % is on record?
A: The Inhibition % was 3.08%.

Q: O=S(=O)(Oc1cnc2ccccc2c1)c1cccnc1 was tested. Which Inhibition % did it give?
A: The Inhibition % was 20.6%.

Q: For NS(=O)(=O)c1ccc(CCNC(=O)CCl)cc1, which Inhibition % is on record?
A: Its Inhibition % is 17.2%.

Q: With Cn1c(SC2CCOC2=O)nnc1-c1ccccc1 (centres unmarked) as the molecule, how does the Inhibition % read?
A: Its Inhibition % is 12.6%.

Q: For N#Cc1ccc(C(F)(F)F)nn1, which Inhibition % is on record?
A: The Inhibition % was 4.49%.

Q: Which Inhibition % does the source give for C=CC(=O)NCc1ccc2occc2c1 here?
A: The Inhibition % was 9.29%.

Q: With CS(=O)C1(CNC(=O)c2cccc(S(=O)(=O)F)c2)CCC1 (centres unmarked) as the molecule, how does the Inhibition % read?
A: Its Inhibition % is 97.3%.

Q: With Fc1ccc(CC2CO2)cc1 (centres unmarked) as the molecule, how does the Inhibition % read?
A: The Inhibition % was 6.59%.

Q: Which Inhibition % does the source give for N#Cc1nccnc1NCC12CC3CC(CC(C3)C1)C2 here?
A: Its Inhibition % is 3.91%.

Q: C=CC(=O)N1CCN(C)c2cc(Cl)ccc21 was tested. Which Inhibition % did it give?
A: Its Inhibition % is 21.6%.

Q: How did the Inhibition % turn out when O=C1CC(c2ccco2)N1 (centres unmarked) was run?
A: Its Inhibition % is 28.2%.

Q: Which Inhibition % does the source give for CCN(Cc1ccnc(C#N)c1)CC1CCOC1 (centres unmarked) here?
A: Its Inhibition % is 11.3%.

Q: Which Inhibition % does the source give for COC(=O)c1ccc(Oc2ccc(C#N)nc2)cc1 here?
A: The Inhibition % was 6.29%.

Q: For C=CC(=O)N1CCC(n2nnc3c2CCCC3)CC1, which Inhibition % is on record?
A: The Inhibition % was 8.25%.

Q: O=S(=O)(C=Cc1ccc(Cl)cc1)NCCc1ccco1 was tested. Which Inhibition % did it give?
A: The Inhibition % was -0.751%.

Q: Which Inhibition % does the source give for C=CC(=O)N1CCOCc2ccccc21 here?
A: The Inhibition % was 6.03%.

Q: Cc1ncc(B2OC(C)(C)C(C)(C)O2)cc1Cl was tested. Which Inhibition % did it give?
A: The Inhibition % was 6.15%.

Q: Which Inhibition % does the source give for CCOc1ccccc1NC(=O)CCl here?
A: Its Inhibition % is 13.1%.

Q: With O=C1CN=C(S)N1Cc1ccccc1 as the molecule, how does the Inhibition % read?
A: The Inhibition % was 6.43%.

Q: For N#CC(=Cc1ccc(Cl)cc1)C(=O)O, which Inhibition % is on record?
A: Its Inhibition % is 0.42%.

Q: Which Inhibition % does the source give for Cc1n[nH]c(C)c1CNc1ccc(Cl)c(C#N)n1 here?
A: Its Inhibition % is 1.98%.

Q: How did the Inhibition % turn out when CN(Cc1cccs1)C(=O)Cn1cnc(C#N)n1 was run?
A: Its Inhibition % is -3.76%.

Q: With c1ccc(COC2CC3OC3C2)cc1 (centres unmarked) as the molecule, how does the Inhibition % read?
A: Its Inhibition % is 0.774%.

Q: N#Cc1[nH]c2ccccc2c1N was tested. Which Inhibition % did it give?
A: The Inhibition % was 72.9%.

Q: For O=C1NC(C(=O)N2CCCC2c2ccccc2Cl)CS1 (centres unmarked), which Inhibition % is on record?
A: Its Inhibition % is 6.93%.

Q: Which Inhibition % does the source give for O=S(=O)(F)c1cccc(S(=O)(=O)Nc2cccnc2O)c1 here?
A: Its Inhibition % is 99.4%.

Q: For C=CC(=O)N1CCOC(OC)C1 (centres unmarked), which Inhibition % is on record?
A: Its Inhibition % is 8.53%.
